# Assay results reported in the supplement of paper PMC3334620.
# The full ranking holds about 33,000 sequences; the median of “E-score (-0.5 to 0.5)” is about -0.043, and the highest 2% start at about 0.37. The list shows a part of the results.
# Target: T1, Upc2 (UniProt Q12151)
# T1 sequence: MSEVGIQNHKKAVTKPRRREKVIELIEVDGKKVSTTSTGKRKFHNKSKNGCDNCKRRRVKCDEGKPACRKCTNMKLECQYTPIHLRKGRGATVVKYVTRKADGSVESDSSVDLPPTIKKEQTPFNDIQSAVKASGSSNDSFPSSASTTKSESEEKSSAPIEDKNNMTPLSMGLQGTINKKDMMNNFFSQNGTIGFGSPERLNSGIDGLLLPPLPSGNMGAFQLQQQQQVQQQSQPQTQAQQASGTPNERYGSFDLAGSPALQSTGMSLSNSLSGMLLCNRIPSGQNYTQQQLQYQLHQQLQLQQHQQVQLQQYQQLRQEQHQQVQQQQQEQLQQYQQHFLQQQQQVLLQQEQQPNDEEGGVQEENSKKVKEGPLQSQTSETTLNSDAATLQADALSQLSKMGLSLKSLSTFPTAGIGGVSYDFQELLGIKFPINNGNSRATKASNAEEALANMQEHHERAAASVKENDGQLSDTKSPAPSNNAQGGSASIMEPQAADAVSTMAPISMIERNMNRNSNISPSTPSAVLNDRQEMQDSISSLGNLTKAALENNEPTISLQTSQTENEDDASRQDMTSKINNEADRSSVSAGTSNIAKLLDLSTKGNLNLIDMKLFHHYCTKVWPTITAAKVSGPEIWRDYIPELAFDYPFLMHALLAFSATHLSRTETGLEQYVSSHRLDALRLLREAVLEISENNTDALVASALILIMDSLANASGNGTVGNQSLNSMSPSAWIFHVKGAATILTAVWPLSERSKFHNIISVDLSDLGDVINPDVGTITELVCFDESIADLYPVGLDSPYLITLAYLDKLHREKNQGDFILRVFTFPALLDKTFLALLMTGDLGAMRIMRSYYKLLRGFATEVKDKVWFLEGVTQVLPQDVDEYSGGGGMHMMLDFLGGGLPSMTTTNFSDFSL
# Test: PBM E-score (8-mer binding enrichment) (E-score (-0.5 to 0.5)); higher = stronger / more preferred TF binding; most listed sequences are background and not binding sites
# Details: protein concentration: 200 nM; construct: GST-full length
# Summary of the method: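 Bound GST-tagged yeast transcription factors, applied at about 100-200 nM to double-stranded universal all-10-mer Agilent arrays, were detected with fluorescent anti-GST. Scans were normalised with masliner. A modified Wilcoxon-Mann-Whitney statistic, the E-score, was assigned to each ungapped eight-base word pooled with its reverse complement by the Universal PBM Analysis Suite.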
row,Sequence,PBM E-score
1,ACGCGCGA,0.0863
2,AACTCATA,-0.0872
3,AGTTATAT,-0.0435
4,AAAGGGTA,0.0132
5,AAGCGCCC,-0.053
6,CGAGTCTA,-0.0853
7,TCAAATCA,-0.148
8,CAAGGGGA,-0.0435
9,GAACATTA,0.00646
10,ATTGCCTG,-0.0772
11,AGGGCCTG,-0.119
12,CCATCACA,-0.181
13,AACTGATG,-0.119
14,CACGGATG,-0.019
15,AGTATTAG,-0.124
16,AGCAACCA,-0.15
17,CGGTGACC,-0.223
18,AAATCGGC,-0.0758
19,AAAAACCT,-0.0504
20,CTGCCCGA,-0.25
21,ATTGCTCG,0.103
22,CCGTCTAC,0.114

row,Sequence,PBM E-score
1,CTTTCAAA,0.134
2,CACGCCTC,-0.122
3,CCGAGGCA,-0.0905
4,AAACGGAT,0.37
5,GCACTTAA,0.147
6,GCCGAATA,0.135
7,ACCTGACT,0.03
8,AACTATAG,-0.174
9,GGTGCACC,-0.0857
10,CAGAATCA,-0.0386
11,CTCGACCA,-0.0774
12,CCATGCGC,-0.175
13,AATTGGAC,0.0636
14,ACGCAGTC,0.00091
15,GGCTACGA,0.363
16,AGGACCCA,-0.292
17,CATCATCC,-0.12
18,AATGTACA,0.133
19,CCTAGTAA,-0.332
20,CTTAATCC,-0.217
21,CATCGGTA,0.133
22,GCAGTCCC,-0.314

row,Sequence,PBM E-score
1,GGGGTGAA,-0.357
2,GTTCTTAA,0.0333
3,CTTTCTGC,-0.111
4,GTCATAGA,-0.134
5,CCGTGAAG,-0.0728
6,ATTGGTGG,-0.132
7,ACGTACAT,0.287
8,CACGTTTA,0.363
9,CTCACCTA,-0.0848
10,GGTGTGCA,-0.207
11,TACTCCTA,-0.122
12,GTGAACCA,-0.0384
13,CTAGTTCC,0.0645
14,CTCCAAAC,0.123
15,CCGGTCCA,-0.266
16,AGCTTAGG,-0.263
17,ACCTAGAC,-0.0829
18,CAGGTCCG,-0.127
19,AGTAGGTC,0.145
20,AGGTCCCA,-0.283
21,CCAGGTGC,-0.163
22,AGTAGGAA,-0.18

row,Sequence,PBM E-score
1,CGGGGGAA,-0.279
2,AAATAAAG,-0.073
3,TCACTAAA,0.107
4,AGCACAGG,-0.233
5,CGACTAAA,0.0471
6,ATCACGAA,-0.00187
7,AGAACTGC,0.144
8,GACAGTTA,0.0255
9,AGATCACG,-0.0226
10,TCCGCGAA,0.0465
11,AATTGTAG,0.0473
12,CCGCGAAG,-0.172
13,AAAAGCGG,-0.153
14,CGACGCCA,-0.027
15,AGTGTCCA,-0.011
16,ACCTCGAT,0.108
17,AAGACAGG,-0.0117
18,GAGAGTCC,-0.0796
19,CTTTATGA,-0.28
20,ATCGTTAG,0.239
